# Data reported in the supplement of paper PMC12217912.
# This is one part of the list. Sequences were assembled here from the parent chain. Inactive controls read about 0.05.
# B1: TEV protease; numbered along this chain (parent)
# chain: MGESLFKGPRDYNPISSSICHLTNESDGHTTSLYGIGFGPFIITNKHLFRRNNGTLVVQSLHGVFKVKDTTTLQQHLVDGRDMIIIRMPKDFPPFPQKLKFREPQREERICLVTTNFQTKSMSSMVSDTSCTFPSGDGIFWKHWIQTKDGQCGSPLVSTRDGFIVGIHSASNFTNTNNYFTSVPKNFMELLTNQEAQQWVSGWRLNADSVLWGGHKVFMVKPEEPFQPVKEATQL
# Variants of: B1
# Assay: raw area under fraction-flipped curve 0-4 h after induction (AUC4h, not background-subtracted), DNA-recorder readout of cleavage of the substrate (dimensionless); higher = more cleavage of the substrate by the protease variant
# Details: temperature: 34 °C; time window: 0-4 h after rhamnose induction
# Description: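 In vivo DNA recorder in E. coli TOP10(DE3) ΔrhaA at 34 °C. Each TEVp single-site mutant (parent TEVp 0) is paired with a single-site variant of the 7-mer TEVs (canonical ENLYFQ|S). The substrate sits between flexible linkers in a Bxb1-sfGFP-TEVs-SsrA fusion, so cleavage stabilises Bxb1 and speeds flipping of a recombination array, read by NGS. The value is the raw area under the fraction-flipped curve over 0-4 h after rhamnose induction (AUC4h), with ≥20 reads per time point. It is not background-subtracted; inactive controls average about 0.047.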
# 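Also: Bxb1 expression induced with 0.2% (w/v) L-rhamnose at OD600 near 0.5, cultures sampled hourly, flipped fraction per protease–substrate barcode pair counted by paired-end Illumina sequencing.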
Variant,area with substrate ENLYFQA,area with substrate ENLYFQF,area with substrate ENLYFQG,area with substrate ENLYFQH,area with substrate ENLYFQI,area with substrate ENLYFQK,area with substrate ENLYFQL,area with substrate ENLYFQM,area with substrate ENLYFQN,area with substrate ENLYFQP,area with substrate ENLYFQQ,area with substrate ENLYFQR,area with substrate ENLYFQS,area with substrate ENLYFQT,area with substrate ENLYFQV,area with substrate ENLYFQY,area with substrate ENLYFQC,area with substrate ENLYFQD,area with substrate ENLYFQW,area with substrate ENLYFQE
V165E,0.055,0.0627,0.0285,0.0773,0.0643,0.0569,0.0514,0.0526,0.0467,0.0521,0.0399,0.0539,0.055,0.06,0.0541,0.0587,–,–,–,–
P184G,0.0947,–,–,0.0778,–,0.0533,0.0562,0.0617,–,–,–,0.0714,0.0854,–,–,0.0796,0.106,0.069,0.0575,–
P184S,0.105,0.0737,0.0899,–,0.0669,0.0658,0.0568,0.0683,0.0869,0.0631,0.0685,0.0601,0.0835,0.0577,0.0628,0.0607,0.102,–,0.0718,0.0984
P184C,0.103,0.0597,0.109,–,0.0672,0.0701,0.0716,0.0737,–,–,–,–,0.0987,0.0682,0.0658,–,0.108,–,0.0532,–
P184I,0.0724,0.0579,0.0833,–,0.0512,0.0534,0.0552,0.0688,0.063,0.0529,0.063,0.0531,0.0766,0.0596,0.0715,0.0585,0.0736,–,0.0624,–
P184N,0.0866,0.0581,0.0755,–,0.056,0.0667,0.0592,0.0788,0.0574,0.0609,0.0585,0.0514,0.0753,0.0628,0.0581,0.0614,0.0818,0.0663,0.0519,–
Q197W,0.0818,0.0619,0.0789,0.0584,0.0563,0.0641,–,0.0891,0.0625,–,–,0.059,0.0866,0.0681,0.0487,0.0729,0.0998,0.0559,0.0764,0.0688
T174D,0.0971,0.0726,0.0829,0.109,0.0657,0.0566,0.0658,–,0.0614,0.0683,–,0.0637,0.0939,–,–,–,0.113,0.0716,0.0707,–
N177E,0.11,–,0.154,0.0782,0.0476,0.056,0.0681,0.074,0.0754,0.0533,0.0695,0.0598,0.108,0.0625,0.0597,0.0743,0.117,–,0.0631,–
I167K,0.0733,0.0442,0.0511,0.0548,0.0488,0.0599,0.0515,0.0417,0.0507,0.071,0.0577,0.0483,0.0551,0.0518,0.0663,0.0512,0.0576,–,0.0557,–
Q198K,0.0856,–,0.0973,0.0804,0.0641,0.0607,0.0526,0.117,0.0761,0.0561,0.0619,0.0624,0.106,–,0.0635,0.117,0.0985,0.0385,0.0675,–
T176I,0.0774,–,0.0805,–,0.0723,0.0608,0.0525,–,0.0662,0.056,0.0552,0.0553,0.0712,0.0539,0.0578,–,0.0685,0.0668,0.0561,–
T176F,0.0724,–,0.0752,–,0.056,–,0.0639,–,–,–,–,0.0466,0.0686,0.0402,–,–,–,–,–,–
T176C,0.0649,–,–,–,0.0606,–,0.0595,0.0788,0.0608,–,–,0.0689,0.075,–,0.0567,0.0422,0.0563,–,–,–
T176R,0.0799,–,–,–,–,0.0597,–,0.068,–,0.0543,0.0445,–,0.0759,–,–,–,–,–,–,–
T176D,0.0665,0.0631,–,0.08,0.0448,0.0675,0.0595,–,0.0722,–,–,0.0581,0.0813,0.0645,–,–,0.0796,–,0.0781,0.086
N175K,0.115,0.0705,–,0.0812,0.0541,0.0635,–,0.0725,0.0671,0.0542,0.0643,0.0611,0.103,0.0657,0.0512,–,0.12,0.0644,0.0762,–
H168D,0.0518,0.0589,–,0.0607,0.0632,0.0515,0.0561,–,0.061,0.0559,–,0.0541,0.059,0.0553,0.0596,0.0412,0.0526,0.0328,0.0516,0.0566
H168E,0.0934,0.0389,0.075,0.0495,0.0533,0.0538,0.0502,0.0595,0.0526,–,–,0.0563,0.0597,0.0618,–,0.0542,0.064,–,0.0471,0.0729
H168L,0.0572,0.0592,0.059,0.053,0.0543,–,0.0432,–,0.0544,0.0581,–,0.107,0.0582,0.0605,0.0592,0.0578,0.0557,0.0569,0.0613,–
H168Q,0.0672,–,0.0756,–,0.058,0.0588,0.0519,0.0611,0.0506,0.0543,0.0971,–,0.0688,0.0541,0.0629,0.0735,0.0691,0.0712,0.0557,–
H168F,0.052,0.0533,–,0.0312,–,0.0535,0.0489,0.0488,0.057,0.0562,–,0.0543,0.0588,0.0583,–,0.0652,0.0471,0.0599,–,0.0713
H168I,0.0598,0.061,0.0742,0.0429,0.0451,0.0822,0.0506,0.0407,0.0529,0.0646,0.071,0.0766,0.0606,0.0569,0.0628,–,0.0596,0.0578,0.0509,–
